From PubChem BioAssay (NCI) come the findings set out here.

Test systems include LOX IMVI melanoma; M19-MEL melanoma; NCI-H460 lung; SF-268 CNS; SF-295 CNS; SK-OV-3 ovarian; 786-0 renal; A498 renal; A549 NSCLC; ACHN renal; BT-549 breast; EKVX NSCLC; HCC-2998 colon; HCT-15 colon; HOP-62 NSCLC; HOP-92 NSCLC; HS 578T breast; HT29 colon; MOLT-4 leukemia; NCI-H226 lung; NCI-H23 lung; OVCAR-4 ovarian; OVCAR-5 ovarian; OVCAR-8 ovarian; SN12C renal; SNB-75 CNS; U251 CNS.

Test in all cases: NCI tumour cell line growth inhibition, 48 h

Each structure is given as a SMILES string.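 How tested: cells in 96-well plates exposed to compound for 48 hours at five concentrations. GI50 = concentration required for 50% inhibition of growth.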 Certain results were filed several times, with different values. This list holds those alone. The source may hold further records. The tests behind the records often covered other concentration ranges, not given here; some values may only mark the edge of a range.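 TGI is the concentration that stops growth completely.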

With `COc1cc(CN[C@H]2CCc3cc(OC)c(OC)c(OC)c3-c3ccc(SC)c(=O)cc32)cc(OC)c1`, the TGI in the assay on LOX IMVI melanoma is 610 nM and 19.3 µM; with M19-MEL melanoma, 92 nM and > 100 µM; with NCI-H460 lung it was 246 nM and 14.2 µM; in the assay with SF-268 CNS, 703 nM and 24.5 µM; in the assay with SF-295 CNS it was 273 nM and > 100 µM; in the assay with SK-OV-3 ovarian it was 75.9 nM and 78.7 µM.
As for `COC(=O)[C@@H](C)C[C@H](Cc1ccccc1)NC(=O)c1cccc([C@@H](C[C@H](C(C)C)N(C)C(=O)[C@@H](NC(=O)[C@H]2CCCCN2C)C2CC2)OC(C)=O)n1`, the GI50 in the assay with 786-0 renal is 3.33 nM and 55.8 nM; in the assay with A498 renal, 3.33 nM and 50.5 nM; in the assay on A549 NSCLC it was 3.33 nM and 102 nM; in the assay on ACHN renal it was 3.33 nM and 47.3 nM; in the assay with EKVX NSCLC it was 3.33 nM and 205 nM; in the assay on HCC-2998 colon, 3.33 nM and 518 nM. Also, the GI50 in the assay with HCT-15 colon was 3.33 nM and 168 nM; in the assay on HOP-92 NSCLC it was 1.91 nM, 3.33 nM, 842 nM; in the assay with HS 578T breast, 3.33 nM and 66.6 nM; in the assay on MOLT-4 leukemia it was 3.33 nM and 36.7 nM; in the assay on NCI-H226 lung, 3.52 nM and 66.7 µM; with NCI-H23 lung, 3.33 nM and 51.8 nM. Further, the GI50 was 3.33 nM and 1.41 µM in the assay with OVCAR-4 ovarian; 3.33 nM and 1.32 µM with OVCAR-5 ovarian; 3.33 nM and 35.7 nM with OVCAR-8 ovarian; 3.33 nM and 81.3 nM in the assay with SF-268 CNS; 3.33 nM and 36 nM in the assay on SN12C renal; 1.56 µM and 21.5 nM in the assay on SNB-75 CNS. Further, in the assay with U251 CNS, the GI50 is 3.33 nM and 40.9 nM. In addition, the TGI with A498 renal is 3.6 nM and > 100 µM; in the assay with BT-549 breast it was 4.69 nM and 247 nM; in the assay on HOP-62 NSCLC, 4.77 µM and > 100 µM; in the assay on HT29 colon, 485 nM and > 100 µM.
